Assays:
[1] = target: Human serum albumin (HSA; Sigma-Aldrich Cat No. A8763) (human, UniProt P02768); assay: SPR Biacore 8K+, HSA on C1 chip, pH 7.4, 1:1 fit
[2] = target: Mouse serum albumin (MSA; Albumin Bioscience Cat No. 2601) (mouse, UniProt P07724 25-608); assay: SPR Biacore 8K+, MSA on C1 chip, pH 7.4, off-rate column
Chain of UniProt P07724 (P07724 25-608 limits assumed): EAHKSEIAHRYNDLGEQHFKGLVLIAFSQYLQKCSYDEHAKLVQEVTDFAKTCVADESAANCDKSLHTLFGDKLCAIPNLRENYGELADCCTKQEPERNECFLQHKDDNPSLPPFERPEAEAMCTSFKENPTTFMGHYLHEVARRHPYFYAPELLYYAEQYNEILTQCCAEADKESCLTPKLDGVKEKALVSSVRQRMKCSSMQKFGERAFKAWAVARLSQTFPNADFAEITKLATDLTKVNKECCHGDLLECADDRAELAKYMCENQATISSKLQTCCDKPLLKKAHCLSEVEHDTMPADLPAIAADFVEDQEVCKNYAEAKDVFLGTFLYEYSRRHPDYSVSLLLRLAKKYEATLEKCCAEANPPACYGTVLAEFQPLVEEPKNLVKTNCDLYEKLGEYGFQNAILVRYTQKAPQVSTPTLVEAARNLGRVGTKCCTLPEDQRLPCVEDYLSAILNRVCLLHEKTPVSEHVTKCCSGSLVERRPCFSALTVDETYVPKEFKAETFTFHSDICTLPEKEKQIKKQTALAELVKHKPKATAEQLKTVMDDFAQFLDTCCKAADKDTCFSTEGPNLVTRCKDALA

B1: TPP-66146 (Fc fusion)
chain 1: DVQLVESGGGVVQAGGSLSISCAASGGSLSNYVLGWFRQAPGKEREFVAAINWRGDITIGPPNVEGRFTISRDNAKNTGYLQMNSLAPDDTALYYCGAGTPLNPGAYIYDWSYDYWGRGTLVTVSSDKTHTCPPCPAPEAAGGPSVFLFPPKPKDTLMISRTPEVTCVVVDVSQEDPEVQFNWYVDGVEVHNAKTKPREEQFNSTYRVVSVLTVLHQDWLNGKEYKCKVSNKGLPSSIEKTISKAKGQPREPQVYTLPPCQEEMTKNQVSLWCLVKGFYPSDIAVEWESNGQPENNYKTTPPVLDSDGSFFLYSKLTVDKSRWQEGNVFSCSVMHEALHNHYTQKSLSLSLGGGGGSGGGGSGGGGSGGGGSGGGGSGGGGSGGGGS[sequence of about 120 residues omitted]
chain 2: DVQLVESGGGVVQAGGSLSISCAASGGSLSNYVLGWFRQAPGKEREFVAAINWRGDITIGPPNVEGRFTISRDNAKNTGYLQMNSLAPDDTALYYCGAGTPLNPGAYIYDWSYDYWGRGTLVTVSSDKTHTCPPCPAPEAAGGPSVFLFPPKPKDTLMISRTPEVTCVVVDVSQEDPEVQFNWYVDGVEVHNAKTKPREEQFNSTYRVVSVLTVLHQDWLNGKEYKCKVSNKGLPSSIEKTISKAKGQPREPQVCTLPPSQEEMTKNQVSLSCAVKGFYPSDIAVEWESNGQPENNYKTTPPVLDSDGSFFLVSKLTVDKSRWQEGNVFSCSVMHEALHNRFTQKSLSLSLG
notes: IgG4 FALA Fc knob-in-hole, C-terminal ALB11002 via 35GS
**Q.** How did the Kd [1] turn out when B1 was run?
**A.** Its Kd is 84.9 nM.

**Q.** What about the koff [1] of the same binder?
**A.** The koff was 0.00486 s⁻¹.

**Q.** And the kon [1]?
**A.** Its kon is 57200 M⁻¹ s⁻¹.

**Q.** Does B1 bind [2]?
**A.** Result: binds

Reference: patent publication US20240368250A1 (Ablynx, published 2024)
